Measurements: the supplement of paper PMC3334620
Over roughly 33,000 sequences, “E-score (-0.5 to 0.5)” has its median near -0.043; the highest 2% begin near 0.37. The list shows a part of the results.

Target: T1, Upc2 (UniProt Q12151)
T1 sequence: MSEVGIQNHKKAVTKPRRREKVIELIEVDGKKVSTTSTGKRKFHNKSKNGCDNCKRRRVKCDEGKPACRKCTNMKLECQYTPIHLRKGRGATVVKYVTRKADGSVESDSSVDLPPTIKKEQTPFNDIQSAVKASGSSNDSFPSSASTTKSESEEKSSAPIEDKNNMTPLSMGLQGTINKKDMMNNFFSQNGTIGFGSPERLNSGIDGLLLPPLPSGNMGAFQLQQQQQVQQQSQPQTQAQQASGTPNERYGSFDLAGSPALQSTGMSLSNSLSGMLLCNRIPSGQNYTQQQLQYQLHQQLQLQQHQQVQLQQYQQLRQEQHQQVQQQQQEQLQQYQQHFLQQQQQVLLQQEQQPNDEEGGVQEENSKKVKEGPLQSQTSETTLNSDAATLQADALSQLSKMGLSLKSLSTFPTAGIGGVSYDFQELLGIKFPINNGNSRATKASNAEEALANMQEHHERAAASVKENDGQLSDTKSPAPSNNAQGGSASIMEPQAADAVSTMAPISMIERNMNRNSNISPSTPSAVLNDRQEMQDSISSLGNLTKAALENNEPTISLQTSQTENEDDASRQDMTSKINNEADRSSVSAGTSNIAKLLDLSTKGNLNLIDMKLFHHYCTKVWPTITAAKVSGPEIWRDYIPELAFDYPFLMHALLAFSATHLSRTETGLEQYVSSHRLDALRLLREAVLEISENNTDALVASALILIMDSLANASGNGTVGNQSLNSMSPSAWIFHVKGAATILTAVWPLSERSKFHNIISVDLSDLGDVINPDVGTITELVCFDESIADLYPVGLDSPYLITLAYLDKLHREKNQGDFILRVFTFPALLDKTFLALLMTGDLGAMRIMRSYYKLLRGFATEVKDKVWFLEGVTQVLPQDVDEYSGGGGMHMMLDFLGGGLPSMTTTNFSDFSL
Assay: PBM E-score (8-mer binding enrichment) (E-score (-0.5 to 0.5)); higher = stronger / more preferred TF binding; most listed sequences are background and not binding sites
Conditions: protein concentration: 200 nM; construct: GST-full length
Method: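 Universal 'all 10-mer' protein binding microarrays (Agilent AMADID 015681) probed with GST-tagged S. cerevisiae TFs (full-length or DBD) made by in vitro transcription/translation (PURExpress), about 100-200 nM. Bound TF was detected with fluorescent anti-GST. Each ungapped 8-mer (which stands for itself and its reverse complement) is scored by the PBM enrichment score (E-score), a modified Wilcoxon-Mann-Whitney statistic from -0.5 to +0.5, computed with the Universal PBM Analysis Suite. Scale: above 0.35 generally sequence-specific binding.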

| Sequence | PBM E-score |
| --- | --- |
| AGTTTGAC | 0.0787 |
| ATCAAGAC | -0.166 |
| GAAACACA | 0.103 |
| GACCCATC | -0.0659 |
| CGCGGAAA | -0.062 |
| CAGCGACA | 0.0616 |
| CTGCTGCA | -0.168 |
| CGCAGAAC | 0.155 |
| CATTTCGG | -0.104 |
| TCCTCGCA | 0.164 |
| CAAAGATG | -0.0527 |
| CCATCCTC | -0.031 |
| AGTCCTGG | -0.0925 |
| AACTTTGA | -0.16 |
| ACCCGTCG | 0.122 |
| AGGAAAGA | -0.254 |
| CGCATCTC | -0.107 |
| AGCACTCG | 0.111 |
| ATCTTCAA | -0.136 |
| AATATGAG | 0.0422 |
| AAGGAATG | -0.128 |
| GACGAATA | 0.0289 |
| CGTACAGA | 0.41 |
| AGGGCATG | -0.177 |
| AGCCTACA | -0.317 |

| Sequence | PBM E-score |
| --- | --- |
| ACCGTGAA | -0.0592 |
| GGGCCTGA | -0.081 |
| CACTCGCC | -0.0485 |
| ACACGCTC | 0.0594 |
| GGGGCGCA | -0.174 |
| ACATTGAA | 0.056 |
| ATCTAGCC | -0.0576 |
| CAGACTCG | -0.00735 |
| ACCTCAGC | 0.0604 |
| CTTGCCGA | -0.0823 |
| CCGCACCG | 0.14 |
| ATTAGCTC | -0.00086 |
| ATAACCTA | 0.0374 |
| CACGAAGA | 0.0935 |
| ATGTCATC | -0.0697 |
| CAACAGCC | -0.0545 |
| CCGGTACA | 0.106 |
| AGTGCCAG | -0.28 |
| ACGTAGTA | 0.187 |
| ACGGGCGA | 0.0658 |
| ACTGATGG | -0.32 |
| ACAGGTGC | -0.236 |
| AAGCATTC | -0.143 |
| ATTCCGAG | 0.135 |
| CGGGGACC | -0.139 |

| Sequence | PBM E-score |
| --- | --- |
| TTAAGTAA | -0.0932 |
| CTAAGGAC | -0.15 |
| ATTTATGC | -0.0351 |
| GACAAAAC | 0.00835 |
| ACGCTTAG | 0.176 |
| AATCGTCT | 0.0582 |
| AGACTACA | 0.056 |
| CAGGTTCG | 0.112 |
| AGTGTATG | 0.0367 |
| AGGCGTCA | -0.153 |
| CTAAGGTA | -0.146 |
| ACTTGTCC | 0.102 |
| ATTAGCGA | 0.254 |
| ATTACATC | 0.12 |
| CGGAGGCC | -0.162 |
| CACTGGCA | -0.317 |
| TCATACAA | 0.0325 |
| CCAGCTCG | 0.0516 |
| ATATTCTG | 0.0135 |
| CTATTGAA | 0.0629 |
| AATACGTC | 0.0421 |
| CTTACGCA | 0.146 |
| GTCTGCAA | -0.2 |
| AGGGGATC | -0.0382 |
| ATTGTCAG | -0.0912 |

| Sequence | PBM E-score |
| --- | --- |
| AGCGACCC | 0.0376 |
| AGATAAGG | -0.171 |
| AGGTATAT | -0.0562 |
| ACAAGCCT | -0.166 |
| TAGTGACA | -0.099 |
| GGTAGCTA | -0.154 |
| GAGAGACA | -0.323 |
| CGTAATCC | 0.12 |
| ACTGTACC | -0.077 |
| AGCCGCAG | -0.128 |
| CTCTGGTA | -0.106 |
| AGCCGTGG | -0.17 |
| ACAAGGTG | -0.221 |
| GACGAGGA | -0.00176 |
| TATCGCGA | 0.182 |
| ACCAACTG | -0.105 |
| AGATCGTC | -0.141 |
| CATAGTGG | -0.138 |
| AGAAGCAG | -0.176 |
| GGCGATAA | -0.146 |
| CACATCCC | -0.252 |
| ATGATGAA | -0.0545 |
| AGGCCGAA | -0.00413 |
| GACATTAC | -0.0486 |
| AAAGAGGT | -0.182 |

| Sequence | PBM E-score |
| --- | --- |
| ACCACTAT | -0.0439 |
| AAGGGATT | -0.122 |
| ACTGAGGA | -0.0238 |
| ACCCAGCG | -0.127 |
| ATTTAGCC | -0.0699 |
| CCATTTAC | 0.00989 |
| TGCATGAA | 0.0372 |
| CCACTAAC | -0.034 |
| CACCGTCG | 0.0676 |
| AGCAGATA | -0.119 |
| CTTGCATA | -0.0652 |
| GACTCAAC | 0.034 |
| ATTTTGAA | 0.00837 |
| ATTTACGG | 0.297 |
| GATACAAC | 0.00052 |
| AAAGTTCA | -0.0621 |
| ACTTTACG | 0.409 |
| TGCCAAAA | -0.147 |
| CGTGGGAA | -0.166 |
| GTATTAAC | 0.194 |
| GATAGAGC | -0.0519 |
| GGGGATCA | -0.184 |
| CTGTCTTC | -0.0977 |
| CAAAGCAC | -0.222 |
| ACTTCGGG | -0.185 |

| Sequence | PBM E-score |
| --- | --- |
| AAAGTCCC | -0.12 |
| ACCTTGCT | -0.178 |
| ATATGGAT | 0.0489 |
| TAGCGGAA | 0.155 |
| ATCCACTG | -0.155 |
| ACAGCTAG | -0.273 |
| CGGCACGC | 0.123 |
| TGCTGTAA | 0.124 |
| CATGGCAA | -0.222 |
| AACCTGAA | -0.147 |
| GCCGAACA | 0.0902 |
| TTCAACAA | 0.0162 |
| CCAACTAG | -0.161 |
| ACACAGGG | -0.17 |
| GGGCTTGA | -0.268 |
| CCAATTGC | -0.138 |
| CCCGAATA | 0.0775 |
| AAGTAGAC | 0.14 |
| AAATTATT | -0.0093 |
| ACTTATCA | -0.0343 |
| ATAAGGGG | -0.132 |
| TAGACACA | -0.245 |
| AGTTGTCA | -0.152 |
| TCTATCCA | -0.247 |
| ACTTCCTG | -0.063 |

| Sequence | PBM E-score |
| --- | --- |
| GAATCAAA | 0.0043 |
| ATACTTAC | -0.0095 |
| CGATGCAG | -0.069 |
| TAATGCCA | 0.0601 |
| GCCTCAAC | -0.112 |
| ATGTCGCA | 0.194 |
| CAGAGGGA | -0.093 |
| CGGAACAC | 0.0172 |
| AGTCGTTG | 0.0644 |
| ATACGCGC | 0.342 |
| AAGAAGAA | 0.0557 |
| GCGATATA | 0.212 |
| CAGGGGGG | -0.182 |
| AGCTATTG | -0.0943 |
| CCTACCGC | -0.154 |
| AGGTGTTC | -0.0204 |
| ATGACTGG | -0.145 |
| CCGTCCCG | -0.0753 |
| GAGCTATC | 0.00145 |
| CCTTATGC | -0.0537 |
| GCGGCGGA | 0.0383 |
| TGCATTAA | -0.054 |
